In paper PMC6919601, “Identification of Plasmodium dipeptidyl aminopeptidase allosteric inhibitors by high throughput screening” (PLoS ONE, 2019):
Among all 110,000 compounds or so, about 230 (0.21%) showed an effect of 50% or more. Some of the results follow.

These compounds were tested against DPAP1 (Plasmodium falciparum, UniProt Q8IIJ9) (assay: primary screen, percent inhibition; read by cleavage of a fluorogenic dipeptide substrate; higher = more effect of the substance).
Design: species or system P. falciparum D10 trophozoite lysates; single well
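Further: 30 min substrate incubation versus DMSO and 10 µM JCP410 controls.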

Chain of DPAP1 (Q8IIJ9 whole entry, looked up): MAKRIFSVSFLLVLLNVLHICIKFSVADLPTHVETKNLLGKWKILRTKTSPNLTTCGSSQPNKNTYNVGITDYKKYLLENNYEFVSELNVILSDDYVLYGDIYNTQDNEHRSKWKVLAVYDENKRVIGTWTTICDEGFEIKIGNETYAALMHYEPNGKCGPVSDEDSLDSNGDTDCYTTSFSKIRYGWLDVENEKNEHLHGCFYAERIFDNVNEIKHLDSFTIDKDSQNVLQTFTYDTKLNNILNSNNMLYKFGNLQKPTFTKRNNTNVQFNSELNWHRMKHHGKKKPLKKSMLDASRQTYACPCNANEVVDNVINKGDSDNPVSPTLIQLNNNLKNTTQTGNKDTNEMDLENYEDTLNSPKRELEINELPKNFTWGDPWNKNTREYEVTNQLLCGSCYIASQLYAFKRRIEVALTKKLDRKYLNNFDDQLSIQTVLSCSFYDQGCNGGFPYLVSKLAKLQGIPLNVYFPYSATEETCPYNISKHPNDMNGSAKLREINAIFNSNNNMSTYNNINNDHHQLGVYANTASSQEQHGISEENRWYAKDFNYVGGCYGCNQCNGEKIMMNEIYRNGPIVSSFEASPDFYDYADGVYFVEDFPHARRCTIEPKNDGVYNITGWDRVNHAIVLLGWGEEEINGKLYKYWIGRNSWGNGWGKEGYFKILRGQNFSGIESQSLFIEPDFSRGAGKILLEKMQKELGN

Row | SMILES | % Inhibition @ 10 uM
1 | OCCN(CCO)Cc1nc(O)c2c(n1)-c1ccccc1CC21CCCCC1 | -0.641%
2 | C(#CCN1CCN(Cc2ccccc2)CC1)COCCOCc1ccccc1 | -0.0626%
3 | O=C(CCn1c(=O)c2cccn2c2cccnc21)N1CCc2ccccc2C1 | 3.38%
4 | Cc1ccc(NC(=O)CN2C(=O)c3ccccc3S2(=O)=O)c(C)c1 | -2.98%
5 | O=C(O)CCCN(Cc1cccc(Br)c1)S(=O)(=O)c1ccc(Br)cc1 | 7.61%
6 | COc1ccc(C2C=C(c3ccc(Br)cc3)Nc3nc(CCCO)nn32)cc1 (stereo not drawn) | 0.205%
7 | CCCCN(C)c1nc(-c2ccco2)c2c(c1C#N)CC(C)(C)OC2 | -3.13%
8 | O=C(O)c1cccc(C(=O)c2cccc(C(=O)O)c2)c1 | -5.2%
9 | O=S(=O)(O)c1cc(-n2nc3ccc4ccccc4c3n2)ccc1/C=C/c1ccccc1 | 44.9%
10 | Cc1ccc2[nH]c(C)c(CCNC(=O)c3c(N)no[n+]3[O-])c2c1 | -2.41%
11 | CCC(Sc1nc2cc(OC)c(OC)cc2c2nc(C)nn12)C(=O)NCc1ccco1 (stereo not drawn) | 1.23%
12 | Cc1nnc(NC(=O)CN2C(=O)c3ccccc3S2(=O)=O)s1 | -4.85%
13 | N=C(NOC(=O)C12CC3CC(CC(C3)C1)C2)c1cccnc1 | -10.2%
14 | Cc1ccc(/C=C2\N=C(c3ccccc3Cl)OC2=O)cc1 | 1.25%
15 | Cc1cc(Cl)ccc1OCC(=O)Nc1sc2c(c1C(N)=O)CCCC2 | 3.8%
16 | O=C(O)c1ccc(NC(=O)c2ccc(-c3ccccc3C(F)(F)F)o2)cc1 | 2.08%
17 | CCCNC(=O)C1CCN(c2nnc(-n3c(C)ccc3C)s2)CC1 | -0.522%
18 | Cc1ccc(C2c3c(-c4ccccc4O)n[nH]c3C(=O)N2CC2CCCO2)cc1 (stereo not drawn) | -3.12%
19 | Cc1cccnc1NC(=O)C(Cc1ccccc1)N1Cc2ccccc2C1=O (stereo not drawn) | -7.33%
20 | CC1CC(C)(C)NC(=S)N1CC(=O)N1CCN(C2CCCCC2)CC1 (stereo not drawn) | 2.84%
21 | O=C(COCc1cc(-c2ccc(F)cc2)on1)Nc1ncc(Cl)cn1 | 1.86%
22 | COCC(C)NC(=O)C1CC(c2ccccc2F)=NO1 (stereo not drawn) | 1.24%
23 | O=C(O)CCCNC(=O)Cc1ccccc1 | -1.4%
24 | COc1ccc(CNC(=O)CSc2nc(-c3ccc4c(c3)OCO4)ccc2C#N)cc1 | 3.19%
25 | Cc1c(C)c2c(cc(C)c3c(C)coc32)oc1=O | 0.558%
26 | COc1ccc2ncc(S(=O)(=O)c3ccccc3)c(N3CCC(C(N)=O)CC3)c2c1 | 2.53%

Row | SMILES | % Inhibition @ 10 uM
27 | COc1ccccc1/C=C/C=c1\sc2nc(-c3cccs3)nn2c1=O | -1.52%
28 | COc1ccc2cc(C#N)c(Cl)nc2c1 | 0.231%
29 | C/C(CCc1oc2ccc(Br)cc2c1-c1ccc(C)o1)=N\NC(N)=S | -3.41%
30 | CCn1c2ccccc2c2cc(NC(C)=O)ccc21 | -6.02%
31 | N#Cc1c(NC(=O)CN2CCOCC2)sc2c1CCCC2 | -1.37%
32 | O=C(CN(Cc1ccccc1F)S(=O)(=O)c1ccc(Cl)cc1)N1CCc2ccccc2C1 | -4.38%
33 | COc1cccc(C2C(C#N)=C(N)Oc3[nH]nc(C)c32)c1 (stereo not drawn) | -5.14%
34 | CSc1nc(O)c2c(n1)NC(=O)CC2c1cccc(O)c1 (stereo not drawn) | 2.25%
35 | O=C(NCc1ccc(Cl)cc1)c1ccc(CNc2c(N3CCCCC3)c(=O)c2=O)cc1 | 1.15%
36 | COc1ccccc1CNC(=O)CN(c1ccc(C)cc1)S(=O)(=O)c1ccc(C)cc1 | 1.84%
37 | CC(NC(=O)CCCN1C(=O)c2ccccc2C1=O)c1ccc2c(c1)CCCC2 (stereo not drawn) | -13.8%
38 | CCCCOc1ccc(N2C(=O)CC(N3CCN(Cc4ccccc4)CC3)C2=O)cc1 (stereo not drawn) | -1.79%
39 | COc1ccccc1OCCn1c(S(=O)(=O)O)nc2ccccc21 | -1.69%
40 | O=C(CCC(=O)Nc1ccc(Cl)cc1)Nc1ccc(Cl)cc1 | -5.15%
41 | Cc1c(O)oc2ccccc2c1=O | 0.238%
42 | COc1cccc(C2N3CC4(C)CN2CC(C)(C3)C4)c1O (stereo not drawn) | 2.6%
43 | O=C(Nc1ccc2c(c1)OCO2)c1cnccn1 | 3.05%
44 | COc1ccccc1C(=O)Nc1c2c(nn1-c1cccc(C)c1C)CS(=O)(=O)C2 | 0.263%
45 | COc1cccc(-c2cc(C(=O)NCCCn3ccnc3)c3ccccc3n2)c1 | -2.9%
46 | c1ccc(-n2ncnc2-c2ccncc2)cc1 | 4.74%
47 | Cc1nc(CC(=O)NC2CCCC2)cs1 | -4.54%
48 | NC(=O)COc1ccc([N+](=O)[O-])cc1 | 3.25%
49 | CC1=C(C(=O)NCc2cccs2)C2(CCN(Cc3ccccc3)CC2)OC1=O | -1.31%
50 | CCO/C(O)=C1\C(C)=NC(C)=C(C(=O)OC)C1c1ccc(Cl)cc1 (stereo not drawn) | -2.91%
51 | CCC(C)NC(=O)CN(c1cccc(Cl)c1Cl)S(=O)(=O)c1ccccc1 (stereo not drawn) | 3.21%
52 | c1ccc2[nH]c(Nn3cnnc3)nc2c1 | -11%

Row | SMILES | % Inhibition @ 10 uM
53 | Cc1onc(-c2c(F)cccc2Cl)c1C(=O)NCc1ccncc1 | -0.179%
54 | Cc1cccc(NC(=N)Nc2nc(C)cc(C)n2)c1 | -2.16%
55 | CCCCN1CN=C(Nc2nc3ccccc3o2)NC1 | -5%
56 | COc1ccc(C)cc1NC(=O)c1ccc([N+](=O)[O-])cc1 | 3.03%
57 | CC(C)Oc1ccc(/C=C/C(=O)Nc2noc3ccccc23)cc1 | 5.29%
58 | Cn1cnc([N+](=O)[O-])c1Sc1ncnc2[nH]cnc12 | -1.8%
59 | O=S(=O)(/N=C(/c1ccc(Cl)cc1)N1CCOCC1)c1ccc(Br)cc1 | 2.95%
60 | O=S(=O)(c1ccc(Cl)cc1)N(CCCO)CC(O)Cn1c2ccccc2c2ccccc21 (stereo not drawn) | 7.76%
61 | OC1CCN(Cc2ccc3c(c2)OCO3)CC1 | -0.192%
62 | CC(C)c1ccc(C2CC(c3c(F)cccc3Cl)n3ncnc3N2)cc1 (stereo not drawn) | -3.23%
63 | COc1cc(/C=C2/SC(Nc3ccccc3)=NC2=O)cc(OC)c1 | -23.1%
64 | COc1ccc(NC(=O)NCc2ccccn2)cc1 | -14.4%
65 | O=C(CN1C(=O)S/C(=C\c2ccccn2)C1=O)Nc1ccccc1 | -1.22%
66 | COc1ccc(C(=O)Nc2ccccc2Cl)c(OC)c1 | -1.52%
67 | O=C(C1CCCC1)N1CCN(C(c2ccccc2)c2ccccc2)CC1 | 0.795%
68 | CCOC(=O)c1c(-c2ccc(Cl)cc2)nn2c1NCN(Cc1ccc3c(c1)OCO3)C2 | -4.74%
69 | N#CCNC(=O)[C@H](CCc1c(F)cccc1F)NC(=O)OCc1ccccc1 | 1.61%
70 | Cc1cccc2cc(-c3nc4cc(C(=O)O)ccc4[nH]3)c(=O)oc12 | 1.64%
71 | COc1ccc(/C=C2/NC(=S)NC2=O)c2ccccc12 | -9.52%
72 | Cc1ccc2oc3c(c(=O)c2c1)C(c1ccc(O)cc1)N(c1nccs1)C3=O (stereo not drawn) | -1.33%
73 | COc1ccc2ccccc2c1/C=C/c1ccncc1 | -0.268%
74 | COc1cc(Cl)ccc1S(=O)(=O)N1CCN(c2cccc(Cl)c2)CC1 | -1.84%
75 | CC(C)C[C@H](NC(=O)c1ccc(B2OC(C)(C)C(C)(C)O2)cc1)C(=O)NCC#N | -5.2%
76 | CCc1nnc(NC(=O)CSc2ccc(-c3cccs3)nn2)s1 | 8.53%
77 | COCCNC(=O)Cn1ncc2c(Cl)cccc21 | 0.596%
78 | NC(=O)c1cc(-c2cccs2)nc2ccccc12 | 0.219%

Row | SMILES | % Inhibition @ 10 uM
79 | O=C(NCC1CCCO1)C(Sc1ccccc1)c1ccccc1 (stereo not drawn) | 1.37%
80 | COc1ccc(C(=O)N2CCc3cc(OC)c(OC)cc3C2C)c(OC)c1 (stereo not drawn) | -2.65%
81 | CNc1nc(SC(C)C(=O)Nc2ccc(Cl)c(Cl)c2)nc(N2CCOCC2)n1 (stereo not drawn) | -2.37%
82 | C=CCO/C(O)=C1\C(C)=Nc2nnnn2C1c1cccc(OC)c1 (stereo not drawn) | 3.32%
83 | CCOC(=O)C1=C(C)NC(=O)NC1c1ccc(F)c(F)c1 (stereo not drawn) | 1.72%
84 | Cc1ccc(C(C)C)c(Oc2nc3ccccn3c(=O)c2/C=C(\C#N)C(=O)NCCCOC(C)C)c1 | 0.315%
85 | COC(=O)c1cc(S(=O)(=O)N(C)CC2COc3ccccc3O2)c[nH]1 (stereo not drawn) | -9.47%
86 | Cc1ccc(S(=O)(=O)N(CC(=O)NC2CC3CCC2C3)c2ccc(Cl)cc2)cc1 (stereo not drawn) | -0.695%
87 | COc1cccc(CN2CCN(c3ccccc3OC)CC2)c1 | 6.18%
88 | COc1cccc(N2C(=O)NC(=O)C(CCc3ccncc3)(CCc3ccncc3)C2=O)c1 | 2.42%
89 | CCOc1ccc(CN(C(=O)c2nc(SCC)ncc2Cl)C2CCS(=O)(=O)C2)cc1 (stereo not drawn) | 6.76%
90 | Cc1cccc(-n2c(Cc3cccn3C)nnc2SCC(N)=O)c1C | 2.12%
91 | COCCNc1nn2c(=O)c3c(C)c(C)sc3nc2c2ccccc12 | 6.03%
92 | COc1ccc(CN2CCN(Cc3ccccc3Cl)CC2)c(OC)c1 | -1.36%
93 | CC(C(=O)N1CCC2(CC1)OCCO2)n1ncn2cccc2c1=O (stereo not drawn) | -7.52%
94 | COc1ccc(S(=O)(=O)N2CCN(Cc3ccc4c(c3)OCO4)CC2)cc1C | 1.74%
95 | CCOC(=O)NC12CC3CC(CC(CC)(C3)C1)C2 | -3.27%
96 | CCOC(=O)N1CCN(Cc2c(F)cccc2F)CC1 | -1.78%
97 | Cc1ccc(C(=O)c2cn(C)c3nc(C)ccc3c2=O)cc1 | -3.85%
98 | CS(=O)(=O)Nc1ccccc1C(=O)NCc1ccco1 | 1.27%
99 | C=CCN1C(=O)C(CC(=O)Nc2cccc(C)c2)S/C1=N\c1ccc(C(C)=O)cc1 (stereo not drawn) | -0.795%
100 | CCOCCN1CCN(C2c3ccccc3CSc3ccccc32)CC1 (stereo not drawn) | 3.53%
101 | COC(=O)C1=C(C)NC(=O)/C1=C\c1ccccc1 | 1.57%
102 | CCCc1cc(O)c2c(O)n(-c3ccccc3)nc2n1 | -3.33%
